Results on 55 compounds are retold here after article PMC4336329 (PLoS ONE, 2015).

The campaign covered roughly 310,000 compounds. About 14,000 (4.5%) showed an effect of 50% or more. Effects have a minus sign here. The list shows a part of the results.
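Also: peak tail current of the secondary pulse compared with the same well before compound.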

Sequence of human ether-à-go-go-related gene (hERG) potassium channel (Q12809 whole entry, looked up): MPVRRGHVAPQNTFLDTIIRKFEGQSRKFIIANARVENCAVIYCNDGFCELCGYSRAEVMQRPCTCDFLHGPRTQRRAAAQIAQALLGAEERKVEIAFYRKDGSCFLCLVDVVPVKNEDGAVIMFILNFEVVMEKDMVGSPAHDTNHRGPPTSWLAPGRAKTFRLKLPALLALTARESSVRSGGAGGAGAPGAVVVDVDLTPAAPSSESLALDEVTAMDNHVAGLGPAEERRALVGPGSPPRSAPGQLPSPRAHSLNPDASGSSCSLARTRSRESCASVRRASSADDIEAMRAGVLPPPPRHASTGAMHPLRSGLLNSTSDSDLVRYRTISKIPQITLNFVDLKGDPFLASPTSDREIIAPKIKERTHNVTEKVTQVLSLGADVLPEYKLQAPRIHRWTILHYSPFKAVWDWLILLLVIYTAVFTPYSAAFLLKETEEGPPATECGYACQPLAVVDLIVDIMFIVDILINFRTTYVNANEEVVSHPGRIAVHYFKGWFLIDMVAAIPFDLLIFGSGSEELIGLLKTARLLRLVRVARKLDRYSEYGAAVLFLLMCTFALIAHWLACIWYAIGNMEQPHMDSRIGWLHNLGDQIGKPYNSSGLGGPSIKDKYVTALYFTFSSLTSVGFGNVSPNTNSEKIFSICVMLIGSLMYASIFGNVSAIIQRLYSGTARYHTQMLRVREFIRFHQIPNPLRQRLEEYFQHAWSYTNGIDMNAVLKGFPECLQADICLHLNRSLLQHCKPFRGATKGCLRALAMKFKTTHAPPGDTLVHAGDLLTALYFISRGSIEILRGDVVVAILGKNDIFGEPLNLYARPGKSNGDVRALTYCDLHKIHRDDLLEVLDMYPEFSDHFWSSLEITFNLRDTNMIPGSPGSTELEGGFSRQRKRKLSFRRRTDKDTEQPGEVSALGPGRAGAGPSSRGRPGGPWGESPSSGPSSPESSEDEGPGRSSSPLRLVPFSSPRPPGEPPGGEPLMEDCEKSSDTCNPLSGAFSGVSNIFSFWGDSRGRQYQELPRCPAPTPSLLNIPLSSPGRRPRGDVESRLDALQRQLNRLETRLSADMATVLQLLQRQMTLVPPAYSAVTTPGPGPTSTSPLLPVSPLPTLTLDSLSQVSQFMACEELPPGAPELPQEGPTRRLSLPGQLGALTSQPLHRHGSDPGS

The assay has as its target human ether-à-go-go-related gene (hERG) potassium channel (human, UniProt Q12809). Kind of assay: primary screen, population patch clamp on CHO cells stably expressing hERG.
Take `COc1ccc2c(CC(=O)Nc3c(C)n(C)n(-c4ccccc4)c3=O)coc2c1`: the “hERG current change (%, negative = inhibition) at 10uM” value worked out at 14.8%.
In the case of `COC(=O)c1ccc(S(=O)(=O)N2CCCCC2)o1` it was -1.96%; in that of `CCOC(=O)C1=C(C)NC(=S)NC1c1ccc(OC(=O)c2ccco2)cc1` (stereo not shown), -1.02%; in that of `C#CCOCCOCCOCCNc1nc(N2CCN(C(=O)[C@H]([C@@H](C)CC)n3cc([C@@H](N)CO)nn3)CC2)nc(N2CCN(C(=O)[C@H](Cc3cc4ccccc4[nH]3)n3cc([C@@H](N)Cc4ccc(O)cc4)nn3)CC2)n1.Cl`, 3.47%.
The value for `COc1cc(CC2C(=O)Nc3ccccc32)cc(C)c1O` (stereo not shown) was 8.43%; that for `CCc1ccc(NC(=O)C2CCCN(S(=O)(=O)c3cccs3)C2)cc1` (stereo not shown) was 6.31%.
As to `CCC(C)(C)C(=O)Nc1ccc(C(N)=O)cc1`, the “hERG current change (%, negative = inhibition) at 10uM” value came out at 0.733%.
The value for `CC(C)c1cc(C(=O)N/N=C/C(Br)=C/c2ccccc2)n[nH]1` was 9.49%; that for `Cc1ccc(C2(C)NC(=O)N(CC(=O)Nc3cc(S(=O)(=O)N4CCOCC4)ccc3C)C2=O)cc1` (stereo not shown) was -19.6%; that for `COc1cccc(C(=O)Nc2nnc(-c3ccccc3)s2)c1` was 11.8%.
In the case of `COCc1cc(CN2CCN(C)CC2)c(O)c2ncccc12` it was 22.7%; in that of `COc1cccc(NC(=O)CSc2nnc(-c3cc(C)[nH]n3)n2N)c1`, 17.8%; in that of `Cc1ccc(OCC(=O)NCCNC(=O)c2cnccn2)cc1`, 4.5%.
In the case of `COc1cc(NC(=S)N2CCN(C(=O)C3CCCO3)CC2)c(OC)cc1Cl` (stereo not shown) it was -4.57%; in that of `COc1ccc(N2CCN(C(=O)c3ccc(CS(=O)Cc4ccc(C)cc4)o3)CC2)cc1` (stereo not shown), -18.3%; in that of `COc1ccc(-c2cc(C(=O)NNC(=S)NC(=O)c3c(-c4ccccc4)noc3C)[nH]n2)cc1`, 36.8%.
For `O=C(CCNC(=O)c1ccccc1)Nc1ccc(F)c(Cl)c1`, the “hERG current change (%, negative = inhibition) at 10uM” value is recorded as 7.79%.
In the case of `O=C1CCC(=O)N1CC(O)COc1ccccc1` (stereo not shown) it was 4.87%.
The value for `O=C1/C(=C/c2cccnc2)SC(=S)N1c1ccc(F)cc1` was 36.2%; that for `COc1ccccc1CNC(=O)C1CCCN(S(=O)(=O)c2cccc3nsnc23)C1` (stereo not shown) was -9.08%.
In the case of `O=C(CSc1nnc2ccccn12)NCCN1C(=O)CSC1=O` it was 21.3%.
As to `Cc1ccc(NC(=O)N2CCCC2C(=O)NCc2ccc(Cl)cc2)cc1` (stereo not shown), the “hERG current change (%, negative = inhibition) at 10uM” value amounted to 1.19%.
For the compound `CC1CC(C)(C)CC2(C1)NC(=O)N(CC(=O)NCC(c1ccco1)N1CCCCC1)C2=O` (stereo not shown), the “hERG current change (%, negative = inhibition) at 10uM” value is on record as -48.6%.
On to `COC(=O)c1ccc(Nc2c([N+](=O)[O-])ccc3nonc23)cc1`, for which the “hERG current change (%, negative = inhibition) at 10uM” value was 15.6%.
Regarding `O=C(CCN1CCCCC1)Nc1ccc(Cl)cc1C(=O)c1ccccc1`, the “hERG current change (%, negative = inhibition) at 10uM” value is recorded as -72.6%.
As for `O=C(NC(=S)Nc1cccc2ncccc12)c1ccccc1`, the “hERG current change (%, negative = inhibition) at 10uM” value is reported as 10.9%.
In the case of `CC(Oc1ccccc1F)C(=O)NN` (stereo not shown) it was 10.5%; in that of `Cc1cc(NC(=O)COC(=O)CCNS(=O)(=O)c2cccc(C(F)(F)F)c2)no1`, 10.6%.
The value for `C=CCc1ccccc1OCCn1nnc2ccccc21` was 8.75%.
In the case of `COCCCn1c(SCC(=O)Nc2ccc3c(c2)OCCO3)nnc1-c1ccoc1C` it was -5.98%; in that of `Fc1cccc(Cl)c1CSc1ccc(-c2cccnc2)nn1`, -68.9%.
In the case of `COc1cc(/C=C2\SC(=S)N(NC(=O)c3ccc(O)c(OC)c3)C2=O)ccc1O`, the “hERG current change (%, negative = inhibition) at 10uM” value stood at 16.6%.
`COc1ccc(-c2nc(CS(=O)CC(=O)NCc3cccnc3)c(C)o2)cc1` (stereo not shown): the “hERG current change (%, negative = inhibition) at 10uM” value came out at 2.52%.
In the case of `CCOC(=O)c1c(-c2ccc(C)c(C)c2)csc1NC(=O)C1CC=CCC1C(=O)O` (stereo not shown) it was -24.1%.
In the case of `CCCN(CCC)C(=O)C1c2ccccc2Oc2ccccc21` it was 10.3%; in that of `Cc1cc(C)cc(OCC(=O)Nc2cc(NC(=O)COc3cc(C)cc(C)c3)cc(C(=O)O)c2)c1`, 15.2%; in that of `COc1ccccc1/C=C/C(=O)NCC(=O)N/N=C/c1ccccc1`, 2.05%.
For `Cc1cccc(NC(=O)NCC2CC2)c1`, the “hERG current change (%, negative = inhibition) at 10uM” value turned out to be 4.74%.
The value for `COc1ccc(C(=O)CSc2nnc(CNC(=O)c3ccccc3)n2C)cc1` was 7.02%.
In the case of `O=C(/C=C/c1ccc2c(c1)OCCO2)c1ccccc1` it was -5.04%; in that of `CCc1ccc(NC(=O)Cn2nc(C(F)(F)F)c3c2CCC3)cc1`, 3.82%.
Take `CCCNC(=O)c1ccccc1NC(=O)c1cccc(-n2cnnn2)c1`: the “hERG current change (%, negative = inhibition) at 10uM” value is reported as -22.3%.
Turning to `CCOc1ccccc1NC(=O)CSc1n[nH]c(=O)n1-c1ccccc1`, the “hERG current change (%, negative = inhibition) at 10uM” value came out at 12.6%.
Regarding `CC(=O)Nc1ccc(C(=O)NCC(=O)OCc2ccccc2F)cc1`, the “hERG current change (%, negative = inhibition) at 10uM” value is 3.57%.
`CCc1nnc(NC(=O)c2ccc(S(=O)(=O)N3CCCC(C)C3)cc2)o1` (stereo not shown): the “hERG current change (%, negative = inhibition) at 10uM” value is 11.4%.
In the case of `O=C(COc1ccc(S(=O)(=O)NCc2ccccc2)cc1Cl)NCc1ccncc1` it was -15%.
On to `COc1cc(OC)cc(C(=O)NC2CCSc3ccccc32)c1` (stereo not shown), for which the “hERG current change (%, negative = inhibition) at 10uM” value worked out at 10.7%.
On to `O=C(N/N=C/c1ccc(O)cc1)c1cc(C23CC4CC(CC(C4)C2)C3)[nH]n1`, for which the “hERG current change (%, negative = inhibition) at 10uM” value is given as -3.27%.
For the compound `Cc1nc(NS(=O)(=O)c2cccs2)c2c3c(sc2n1)CCC3`, the “hERG current change (%, negative = inhibition) at 10uM” value came out at 3.8%.
Take `CN(C)c1ccc(NC2=C(Cl)C(=O)c3ccccc3C2=O)cc1`: the “hERG current change (%, negative = inhibition) at 10uM” value was 15.2%.
The value for `C=CCSc1nc2c(cnn2-c2ccc(C)c(C)c2)c(=O)[nH]1` was -11.3%.
For `CC(C)Oc1ccc(S(=O)(=O)N2CCOCC2)cc1NC(=O)C1=COCCO1`, the “hERG current change (%, negative = inhibition) at 10uM” value came to 2.7%.
In the case of `Cc1cccc(N2CCN(S(=O)(=O)c3ccc4c(c3)NC(=O)C(C)S4)CC2)c1C` (stereo not shown) it was -2.54%; in that of `O=C(O)CCCC(=O)N1N=C(c2ccccc2)CC1c1ccc2nccnc2c1` (stereo not shown), 2.35%; in that of `Cc1ccc(/C=N/N2CCCCC2)o1`, 34.4%.
